The source of these data is PMC2749851.

The chains behind the UniProt entries cited, without tags or fusion partners. Where a name states a change or a piece, a line headed by the entry shows the natural chain unless it says otherwise.
UniProt Q92769: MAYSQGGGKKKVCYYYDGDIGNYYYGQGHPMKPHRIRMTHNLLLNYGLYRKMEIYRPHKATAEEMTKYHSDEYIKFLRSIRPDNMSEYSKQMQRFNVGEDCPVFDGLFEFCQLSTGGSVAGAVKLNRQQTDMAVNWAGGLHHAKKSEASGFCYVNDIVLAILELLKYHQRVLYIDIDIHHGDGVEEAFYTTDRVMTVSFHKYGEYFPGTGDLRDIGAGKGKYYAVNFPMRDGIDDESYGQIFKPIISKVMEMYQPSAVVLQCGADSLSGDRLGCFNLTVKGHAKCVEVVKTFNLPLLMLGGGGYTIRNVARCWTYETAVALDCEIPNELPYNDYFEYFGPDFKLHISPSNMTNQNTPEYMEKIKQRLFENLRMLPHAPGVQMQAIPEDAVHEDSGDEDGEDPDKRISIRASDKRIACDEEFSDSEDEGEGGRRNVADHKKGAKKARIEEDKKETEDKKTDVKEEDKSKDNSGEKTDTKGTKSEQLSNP

These are yes or no findings as the source states them, for the method shown. For part of these data: In cells and extracts the contact can be indirect. Some results given as binding are weak or reduced against the parent protein; the word gives no strength. For part of these data: Where a sequence is shown, tags or fusion partners need not be part of it.

The target in experiment [1] is Flag-HA-tagged CtBP2 A58E (UniProt P56545). The experiment can be described thus: cross-linking; HeLa cells transfected with Flag-HA-tagged CtBP constructs, treated with DSS one day after transfection; Western blot with the Flag antibody.
Experiment [2] deals with Flag-HA-tagged GG-CtBP2 (G189A/G192A) (UniProt P56545). The description is as above.
For experiment [3] the target is unchanged. The experiment can be described thus: co-IP; HeLa cells co-transfected with the HBH-tagged and the Flag-HA-tagged copy, 5 μM biotin; lysates adsorbed to streptavidin-agarose beads; FH copy detected with a CtBP2 antibody; no cross-linking.
The target in a further experiment is GST-E1A (adenovirus) (UniProt P03254). The experiment can be described thus: pull-down; GST fusion proteins charged on glutathione-agarose beads, incubated with purified H6-CtBP2 or H6-RR-CtBP2 (~0.1 μg) in 200 μl of 25 mM Tris-HCl pH 7.5, 0.25 M NaCl, 0.5% Triton X-100, 0.5 mM DTT for 1 h at 4°C; Western blot with the CtBP2 antibody; both purified.
For the next experiment, the target named is T1, GST-ZEB101 (UniProt P37275).
T1 sequence: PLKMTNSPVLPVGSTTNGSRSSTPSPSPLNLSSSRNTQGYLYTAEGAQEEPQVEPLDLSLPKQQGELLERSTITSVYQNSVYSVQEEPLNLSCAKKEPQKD
The experiment is described as above.

Experiment [4] addresses Flag-HA-tagged RR-CtBP2 (R147L/R169L) (UniProt P56545). The experiment can be described thus: co-IP; Flag-HA-tagged CtBP proteins transiently expressed in 293 cells; lysates immunoprecipitated with the Flag antibody; Western blots of endogenous co-factors. For orientation: In western blotting, separated proteins are transferred to a membrane and probed.
Experiment [5] has as its target Flag-HA-tagged CtBP2 (wild type) (UniProt P56545). Described as above.
In experiment [6] the target is Flag-HA-tagged GG-CtBP2 (G189A/G192A) (UniProt P56545). The experiment is described as above.
The target in experiment [7] is Flag-HA-tagged CtBP2 (wild type) (UniProt P56545). The experiment can be described thus: co-IP; HeLa cells transfected with Flag-HA-tagged CtBP2 or RR-CtBP2 alone or with GFP-ZEB101 (also in increasing amounts) or GFP-Cter; lysates immunoprecipitated with Flag antibody beads; Western blots.
Experiment [8] deals with Flag-HA-tagged RR-CtBP2 (R147L/R169L) (UniProt P56545). Described as above.

Take “Flag-HA-tagged CtBP2 A58E (from UniProt P56545 1-445)”: the binding result in [1] is reported as “binds”.

Turning to “Flag-HA-tagged GG-CtBP2 (G189A/G192A) (from UniProt P56545 1-445)”, the binding entry in [2] and in experiment [3] was “binds” each time.

For the substance H6-CtBP2 (from UniProt P56545 1-445), the binding entry in the experiment with GST-E1A (adenovirus) is listed as “binds”.

Take H6-RR-CtBP2 (from UniProt P56545 1-445): the results for the binding result with GST-E1A (adenovirus) and with GST-ZEB101 were “no binding (tested: ~0.1 μg in 200 μl)” and “binds”, respectively.

With “adenovirus E1A, endogenous in 293 cells (from UniProt P03255 1-289)”, the binding result in experiment [4] is reported as “no binding”.

Take “histone deacetylase 2 (HDAC2), endogenous (from UniProt Q92769 1-488) (enzyme)”: the binding result in [5], in experiment [6], in experiment [4], in experiment [7] and in experiment [8] was “binds” in each case.
